Data taken from the supplement of paper PMC11876631.
± gives the standard deviation of the averaged measurements. Laboratory Escherichia coli strains with one amino-acid change in an essential protein, pooled on minimal glucose agar with carbenicillin or gentamicin at twice the control MIC (plus kanamycin and chloramphenicol for the plasmids), 48 h. Fold change of barcode share against drug-free plates; higher = less susceptible. Active = above 20 in both replicates (the paper's putatively resistant). '<' = one read or none on drug, '>' = one read or none on a drug-free plate. Shares are relative, so most strains fall below 1 when a few take over. Listed are strains with at least 15 reads on both drug-free plates, and hits; most hits rest on fewer reference reads. Replicate rank correlation about 0.5. Edits are read from barcodes.

B1: lgt; numbered along this chain (parent)
chain: MTSSYLHFPEFDPVIFSIGPVALHWYGLMYLVGFIFAMWLATRRANRPGSGWTKNEVENLLYAGFLGVFLGGRIGYVLFYNFPQFMADPLYLFRVWDGGMSFHGGLIGVIVVMIIFARRTKRSFFQVSDFIAPLIPFGLGAGRLGNFINGELWGRVDPNFPFAMLFPGSRTEDILLLQTNPQWQSIFDTYGVLPRHPSQLYELLLEGVVLFIILNLYIRKPRPMGAVSGLFLIGYGAFRIIVEFFRQPDAQFTGAWVQYISMGQILSIPMIVAGVIMMVWAYRRSPQQHVS
B2: fmt; numbered along this chain (parent)
chain: MSESLRIIFAGTPDFAARHLDALLSSGHNVVGVFTQPDRPAGRGKKLMPSPVKVLAEEKGLPVFQPVSLRPQENQQLVAELQADVMVVVAYGLILPKAVLEMPRLGCINVHGSLLPRWRGAAPIQRSLWAGDAETGVTIMQMDVGLDTGDMLYKLSCPITAEDTSGTLYDKLAELGPQGLITTLKQLADGTAKPEVQDETLVTYAEKLSKEEARIDWSLSAAQLERCIRAFNPWPMSWLEIEGQPVKVWKASVIDTATNAAPGTILEANKQGIQVATGDGILNLLSLQPAGKKAMSAQDLLNSRREWFVPGNRLV
B3: proS; numbered along this chain (parent)
chain: MRTSQYLLSTLKETPADAEVISHQLMLRAGMIRKLASGLYTWLPTGVRVLKKVENIVREEMNNAGAIEVSMPVVQPADLWQESGRWEQYGPELLRFVDRGERPFVLGPTHEEVITDLIRNELSSYKQLPLNFYQIQTKFRDEVRPRFGVMRSREFLMKDAYSFHTSQESLQETYDAMYAAYSKIFSRMGLDFRAVQADTGSIGGSASHEFQVLAQSGEDDVVFSDTSDYAANIELAEAIAPKEPRAAATQEMTLVDTPNAKTIAELVEQFNLPIEKTVKTLLVKAVEGSSFPQVALLVRGDHELNEVKAEKLPQVASPLTFATEEEIRAVVKAGPGSLGPVNMPIPVVIDRTVAAMSDFAAGANIDGKHYFGINWDRDVATPEVADIRNVVAGDPSPDGQGRLLIKRGIEVGHIFQLGTKYSEALKASVQGEDGRNQILTMGCYGIGVTRVVAAAIEQNYDERGIVWPDAIAPFQVAILPMNMHKSFRVQELAEKLYSELRAQGIEVLLDDRKERPGVMFADMELIGIPHTIVLGDRNLDNDDIEYKYRRNGEKQLIKTGDIVEYLVKQIKG

Variants of: B1
Experiment: barcode share on antibiotic plates over drug-free plates; higher = less susceptible
Settings: with Escherichia coli (laboratory strain); antibiotic: carbenicillin; 2× MIC (3.1 µg/mL)
Experimental: (§1)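 A pool of E. coli strains, each edited to carry one amino-acid change in an essential protein, was grown for 48 h on minimal glucose agar with or without antibiotic; strain barcodes were sequenced; mean of two replicates.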

Variant	fold change of barcode share
L31W	0.888 ± 1
L31A	0.264 ± 0.12
F69A	1.06 ± 0.24
F69D	0.23 ± 0.071
F69Q	0.225 ± 0.059
V57Q	0.298 ± 0.15
V57P	0.683 ± 0.42
V57W	1.3 ± 0.4
V57A	0.384 ± 0.13
L210D	0.345 ± 0.035
L210Q	0.191 ± 0.23
L214D	0.193 ± 0.075
L214A	0.156 ± 0.0057
L214Q	0.23 ± 0.16

Same assay, conditions: with Escherichia coli (laboratory strain); antibiotic: gentamicin; 2× MIC (MIC 0.45 µg/mL)

Variant	fold change of barcode share
L31W	0.013 ± 0.0032
L31A	< 0.00475
F69A	< 0.00533
F69Q	< 0.0107
F69W	< 0.0165
V57Q	0.0073 ± 0.0054
V57P	0.00436 ± 0.0018
V57A	0.00753 ± 0.0042
L214D	< 0.00627
L214A	< 0.0062
L214Q	< 0.0163

Variants of: B2
Experiment: as above
Settings: with Escherichia coli (laboratory strain); antibiotic: carbenicillin; 2× MIC (3.1 µg/mL)
Experimental: as §1

Variant	fold change of barcode share
I8W	0.295 ± 0.054
I8A	0.271 ± 0.013
I8Q	0.269 ± 0.013
F34Q	0.251 ± 0.022
F34A	0.307 ± 0.0044
F34D	0.455 ± 0.15
F34W	0.284 ± 0.031
M140W	0.315 ± 0.083
M140Q	0.184 ± 0.0071
M140D	0.266 ± 0.11
M140A	0.0699 ± 0.039
M140P	0.361 ± 0.11
I228D	0.229 ± 0.0056
I228W	0.293 ± 0.034
I228Q	0.525 ± 0.48
I228A	0.558 ± 0.4
I228P	0.208 ± 0.0022
F9W	0.196 ± 0.0053
F9Q	0.73 ± 0.47
F9A	0.238 ± 0.063

Same assay, conditions: with Escherichia coli (laboratory strain); antibiotic: gentamicin; 2× MIC (MIC 0.45 µg/mL)

Variant	fold change of barcode share
I8W	< 0.00381
I8A	0.0108 ± 0.011
I8Q	< 0.00463
F34Q	< 0.00357
F34A	< 0.0044
F34D	< 0.0143
F34W	< 0.00288
M140W	< 0.0195
M140Q	< 0.00879
M140D	< 0.0104
M140P	< 0.0147
I228D	< 0.0142
I228W	< 0.0035
I228Q	< 0.00477
I228A	< 0.00788
I228P	< 0.00855
F9W	< 0.011
F9A	< 0.00506

Variants of: B3
Experiment: as above
Settings: with Escherichia coli (laboratory strain); antibiotic: carbenicillin; 2× MIC (3.1 µg/mL)
Experimental: as §1

Variant	fold change of barcode share
M441Q	0.236 ± 0.086
M441A	0.265 ± 0.12
W467P	0.472 ± 0.19
W467Q	0.338 ± 0.019
W467A	0.374 ± 0.23
V283A	0.283 ± 0.064
I414D	0.372 ± 0.1
I414A	0.439 ± 0.066
I414Q	0.161 ± 0.023
I414W	0.635 ± 0.4
I414P	0.188 ± 0.0051
L266A	0.22 ± 0.0075
L266Q	0.223 ± 0.13
L266W	0.585 ± 0.3
L266D	0.187 ± 0.11
L266P	0.3195 ± 0.00057
L492D	1.7 ± 1.1
L492A	0.853 ± 0.29
L492Q	0.225 ± 0.011
L492P	0.464 ± 0.24
L492W	0.501 ± 0.18
L479W	0.263 ± 0.015
L479Q	0.207 ± 0.015
V278Q	0.388 ± 0.2
V278A	2.13 ± 2.4

Same assay, conditions: with Escherichia coli (laboratory strain); antibiotic: gentamicin; 2× MIC (MIC 0.45 µg/mL)

Variant	fold change of barcode share
M441Q	0.00848 ± 0.0053
M441A	0.488 ± 0.68
W467P	0.00693 ± 0.0059
W467Q	< 0.00369
W467A	0.00744 ± 0.0018
V283A	0.00776 ± 0.0052
I414D	0.0156 ± 0.014
I414A	< 0.0122
I414Q	< 0.00734
I414W	0.0357 ± 0.032
L266A	< 0.0108
L266Q	< 0.0124
L266W	0.00984 ± 0.0044
L266D	0.0112 ± 0.0065
L266P	< 0.00876
L492D	0.0107 ± 0.011
L492A	0.0124 ± 0.0098
L492Q	0.00459 ± 0.0036
L492P	< 0.00543
L492W	0.0103 ± 0.012
L479W	< 0.00707
L479A	< 0.00415
L479Q	0.154 ± 0.058
L479P	0.00661 ± 0.0034
V278A	< 0.00801
